# From PubChem BioAssay AID504706 (National Center for Advancing Translational Sciences (NCATS), 2011)
# The campaign covered roughly 320,000 compounds. About 200 (0.062%) were called active. Inconclusive results, whose numbers are uncertain, are shown with a selection of clear calls. Calls follow the shape of the dose curve; as a rule, active = well fitted activation curve with a large enough effect; inconclusive = small, poorly fitted or top-dose-only effect; inactive = no such curve, though single readings can be large or run the other way. No potency is given beside an inconclusive call; the fits are too rough.
# Test: qHTS assay for re-activators of p53 using a Luc reporter; also: nearly all actives have a fitted effect of over 45% in size
# Conditions: H1299 p53-A138V BP100-luciferase reporter, luminescence, 24 h; series mostly up to 92.2 µM
# Procedure, shortened: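 H1299 (p53-null), stable ts p53-A138V + BP100-Luc; 1000 cells/well, Opti-MEM/10% FBS; cpd 4 pt, 1:5; 24 h, 37 deg C, 5% CO2; detection reagent 10 min RT; luminescence.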
# Potency is read from the fitted curve at half-maximal effect; tags tell the direction and shape of the fitted curve.
row,SMILES,Potency
1,N#Cc1c(SCC(=O)Nc2nc3ccccc3s2)sc2c(O)cc(=O)[nH]c12,"inconclusive [activator, single point]"
2,O=C(NCCc1ccccn1)c1c(-c2ccsc2)sc2ccccc12,"inconclusive [activator, partial curve, poor fit]"
3,O=C(Nc1cccnc1Cl)c1cc2ccccc2o1,"inconclusive [activator, partial curve, poor fit]"
4,O=C(N/N=C/c1cccc2nccnc12)c1ccccc1O,"inconclusive [activator, partial curve, poor fit]"
5,c1ccc2oc(SCc3cn4ccsc4n3)nc2c1,"inconclusive [activator, partial curve, poor fit]"
6,COc1cccc(NC(=S)N2CCC(c3ccc(C)cc3)C2)c1 (stereo not drawn),"inconclusive [activator, partial curve, poor fit]"
7,Cc1ccc(S(=O)(=O)CCC(=O)NCCN2C(=O)S/C(=C\c3ccccc3)C2=O)cc1,"inconclusive [activator, full curve, poor fit]"
8,Nn1c(SCC(=O)N2CCCCC2)nnc1-c1ccncc1,inactive
9,COC(=O)c1c(C)[nH]c(C(=O)/C=C/c2ccc(Cl)cc2)c1C,"inconclusive [activator, partial curve, poor fit]"
10,COc1ccc(NC(=O)c2ccc(=O)oc2)cc1,"inconclusive [activator, partial curve, poor fit]"
11,Cc1ccc(S(=O)(=O)O/N=C2\CCCc3ccccc32)cc1,inactive
12,CC(=O)c1c(C)[nH]c(C(=O)OCC(=O)N2CCc3ccccc32)c1C,"inconclusive [activator, single point]"
13,Cc1ccc(C(=O)NCc2cccc(C(F)(F)F)c2)cc1S(=O)(=O)N1CCCCC1,inactive
14,CCCCNc1ncnc2c1cnn2-c1ccc(Cl)cc1,"inconclusive [activator, partial curve, poor fit]"
15,Fc1cccc(NC(=S)NNc2ccccc2)c1,inactive
16,Nc1nn(-c2cccc(F)n2)cc1-c1ccc(Cl)cc1,"inconclusive [activator, full curve, poor fit]"
17,CC(=O)c1cnc2cc(-c3ccccc3)nn2c1C,"inconclusive [activator, full curve, poor fit]"
18,Cc1ccc(NC(=O)CNC(=O)c2ccco2)cc1,inactive
19,COc1ccc(OCCSc2nnc3sc4ccccc4n23)cc1,"inconclusive [activator, partial curve, poor fit]"
20,N#CCSc1nnc(-c2sc3ccccc3c2Cl)o1,"inconclusive [activator, partial curve, poor fit]"
21,Cc1cccc(NC(=S)N(C)C2CCCCC2)c1,inactive
22,O=c1ccnc(S/C=C/c2ccccc2)[nH]1,"inconclusive [activator, single point]"

row,SMILES,Potency
1,Cc1cc(C(=O)N/N=C/c2ccc(OCc3ccccc3)cc2)c(C)o1,inactive
2,CSc1cccc(NC(=O)c2[nH]c(C)c(C(C)=O)c2C)c1,"inconclusive [activator, partial curve, poor fit]"
3,Cc1ccc2nc(NC(=O)c3ccc(Cn4cc(Cl)cn4)o3)sc2c1,"inconclusive [activator, single point]"
4,COc1c(C)cc(Br)cc1C(=O)NC(=S)Nc1ccc(Cl)c(C(=O)O)c1,inactive
5,CCN1CCN(c2ccc(S(=O)(=O)N3CCCCC3)cc2NC(=O)Cc2ccccc2)CC1,inactive
6,COc1ccccc1CN1CC(C(=O)NCc2c(F)ccc(C)c2F)CCC1=O (stereo not drawn),"inconclusive [activator, partial curve, poor fit]"
7,CCOC(=O)C(C)On1c(-c2ccccc2)nc2ccc([N+](=O)[O-])cc21 (stereo not drawn),"inconclusive [activator, partial curve]"
8,CC(=O)Nc1ccc(-c2csc(NC(=O)C3=COCCO3)n2)cc1,"inconclusive [activator, partial curve, poor fit]"
9,CCOC(=O)Cn1ccc(NC(=O)c2ccc3c(c2)OCO3)n1,"inconclusive [activator, single point]"
10,Cc1ccc2c(c1)C(=NC1CCCCC1)c1cc3ccccc3nc1-2,"inconclusive [activator, partial curve, poor fit]"
11,C=CCOc1cccc(C2C(C(=O)c3ccco3)=C(O)C(=O)N2Cc2ccco2)c1 (stereo not drawn),inactive
12,Cc1ccc2nc(-c3ccc(NC(=O)CN(c4ccccc4C)S(C)(=O)=O)cc3)sc2c1,"inconclusive [activator, full curve, poor fit]"
13,O=C(N[C@@H]1CCC(=O)N(CC[C@H](Sc2ccc(Br)cc2)c2ccccc2)CC1)OCc1ccccc1,"inconclusive [activator, single point]"
14,CCN(Cc1ccccc1)S(=O)(=O)c1ccc(C(=O)Nc2nnc(C3CC3)o2)cc1,"inconclusive [activator, single point]"
15,CCOc1ccc(/C=N/NC(=O)c2ccccc2NC(=O)c2ccc(OC)cc2)cc1,"inconclusive [activator, full curve, poor fit]"
16,Cc1nc(NC(=O)C2CC3CCCC(C2)C3=O)sc1C (stereo not drawn),"inconclusive [activator, partial curve, poor fit]"
17,O=C(Nc1ccccc1)Nc1nnc(Cc2ccc(F)cc2)s1,"inconclusive [activator, single point]"
18,CCOC(=O)Cc1cnc(NC(=O)CSc2nc3ncnc(N)c3[nH]2)s1,inactive
19,O=C(c1cc(-c2cccc(Cl)c2)on1)N1CCCCCC1,"inconclusive [activator, full curve, poor fit]"
20,Cc1cccc(NC(=O)CCn2ccnc2C)c1,"inconclusive [activator, single point]"
21,C/C(=N\NC(=O)c1ccc(N(C)C)cc1)c1cccnc1,"inconclusive [activator, partial curve, poor fit]"
